# PubChem BioAssay AID686971 (National Center for Advancing Translational Sciences (NCATS), 2013)
# Several values for one entry are separate records, joined by “and”; a condition that tells them apart may be missing. Identical values can stand only once. In all, about 360,000 compounds went through this assay and about 7,500 (2.1%) were called active. The inconclusive results got no clear call from the source; some entries with a clear call stand among them for comparison. Calls come from the whole dose curve; as a rule, active = well fitted cell-killing curve with a large enough effect; inconclusive = small, poorly fitted or top-dose-only effect, or effect the other way, or another doubt; inactive = no such curve, though single readings can be large or run the other way. Potencies beside an inconclusive call are fits to weak or partial responses and may not hold up.
# Test: qHTS for induction of synthetic lethality in tumor cells producing 2HG: qHTS for the HT-1080-IDH1KD cell line;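 for activity, negative = toxicity: 0% = DMSO wells and -100% = cell-free medium wells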
# Conditions: HT-1080 IDH1 knockdown viability, ATP luminescence, 48 h; activity, negative = toxicity: at 46.1 µM (top of the series) unless noted
# How it was run: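 IDH1KD HT-1080 cells, 750/well, RPMI + 5% FBS; compound pinned after 2 h settling; 48 h, 37 °C; CellTiter-Glo luminescence; % activity normalised to DMSO and no-cell wells; curves fitted, classed by r2 and efficacy.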
# Potency is the fitted concentration of half-maximal effect; tags give direction and shape of the fitted curve.
SMILES,Potency,"activity, negative = toxicity"
COc1ccc(/C=N/NC(=O)C2C(=O)NCC2c2ccccc2)c(OC)c1 (centres undefined),inactive,–
COc1ccc(S(=O)(=O)N2CCCC(C(=O)NC3CCCCC3)C2)cc1 (centres undefined),"inconclusive: 29.1 µM [cytotoxic, single point]",–
Cc1ccc(C2CC(=O)Nc3c2ccc2ccccc32)cc1[N+](=O)[O-] (centres undefined),"inconclusive: 18.4 µM [cytotoxic, single point]",–
Cc1ccc(C)c(N2CCN(C(=O)c3ccc4c(c3)c(C)c(C)n4C)CC2)c1,"inconclusive: 18.4 µM [cytotoxic, single point]",–
O=C1N(Cc2cccc(Cl)c2)C[C@@H]2C[C@@H](c3cccn3-c3nccs3)N3CCC[C@@]123,"inconclusive: 23.1 µM [cytotoxic, partial curve]",–
Cc1ccccc1NC(=S)NCCC(c1ccccc1)c1ccccc1,"inconclusive: 18.4 µM [cytotoxic, partial curve]",–
S=C(Nc1ccc(Cl)cc1)c1nc2ccccc2[nH]1,"inconclusive: 16.4 µM [cytotoxic, single point]",–
COc1cc(S(=O)(=O)N2CCCCC2)ccc1NC(=O)Cc1ccccc1,inactive,–
Cc1cc(C)cc(NS(=O)(=O)c2cc(Br)cnc2N)c1,"inconclusive: 18.4 µM [cytotoxic, partial curve]",–
COc1ccc(OCC(=O)Nc2cccc(NC(=O)COc3ccc(OC)cc3)n2)cc1,"inconclusive: 5.01 µM [cytotoxic, full curve, poor fit]",–
Cc1ccc(OCc2nnc(SCc3cc(=O)[nH]c4ccccc34)n2-c2ccccc2)cc1,"inconclusive: 13 µM [cytotoxic, partial curve]",–
COc1cc(-c2nc3ccccn3c2/N=C/c2cc(OC)c(OC)c(OC)c2)ccc1O,inactive,–
NC(=O)c1cccc(-c2ccnc3c2CC(C(=O)NCc2ccco2)O3)c1 (centres undefined),active: 4.11 µM,–
CCCc1cc(=O)oc2cc(C)cc(OCC(=O)Nc3ccc(CN4CCOCC4)cc3)c12,"inconclusive: 25.9 µM [cytotoxic, single point]",–
Cc1ccc2cccc(NC(=O)c3ccc(Br)o3)c2n1,"inconclusive: 23.1 µM [cytotoxic, partial curve]",–
O=C(NC1CCCCC1)c1cnn2c(C(F)(F)F)cc(-c3ccco3)nc12,"inconclusive: 15.8 µM [cytotoxic, single point]",–
CC(C)=NOc1nc(N2CCOCC2)nc(N2CCOCC2)n1,inactive,–
O=C(c1ccc(Cl)cc1)c1ccc(OCC(O)CN2CCOCC2)cc1 (centres undefined),inactive,–
NC(=S)n1[nH]c(-c2ccc([N+](=O)[O-])cc2)c(N=Nc2ccc(Cl)cc2)c1=O,active: 4.11 µM,–
CCOC(=O)CC(=O)CSc1ccc2nnc(-c3ccccc3)n2n1,"inconclusive: 35.5 µM [cytotoxic, single point]",–
Cc1ccc(S(=O)(=O)N2CCN(S(=O)(=O)N(C)C)CC2)cc1,"inconclusive: 16.4 µM [cytotoxic, partial curve]",–
CC(C)(C)C(=O)c1cnc(Nc2ccccc2)s1,"inconclusive: 18.4 µM [cytotoxic, single point]",–
O=C1c2ccccc2C(=O)C1Cc1cccc2ccccc12,inactive,–

SMILES,Potency,"activity, negative = toxicity"
CN1CCN(C(=O)Cn2ncc3c([nH]c4ccccc43)c2=O)CC1,inactive,–
COc1cccc(C(C[N+](=O)[O-])c2c(C)[nH]n(-c3ccccc3)c2=O)c1 (centres undefined),"inconclusive: 29.1 µM [cytotoxic, single point]",–
C[C@H](c1ccccc1)N1C[C@H](COCc2ccccc2)Oc2cc(N3CC[C@@H](O)C3)ccc2S1(=O)=O,"inconclusive: 20.6 µM [cytotoxic, single point]",–
CCCCC[C@H](O)/C=C/C1C(=O)C=C[C@H]1C/C=C\CCCC(=O)OC (some centres undefined),"inconclusive: 29.1 µM [cytotoxic, single point]",–
CC1(c2ccc([N+](=O)[O-])cc2)Nc2ccccc2S1 (centres undefined),active: 20.6 µM,–
COc1ccc(Cc2nnc(SCC(=O)Nc3nc(C)cs3)o2)cc1,"inconclusive: 31.6 µM [cytotoxic, single point]",–
Cc1cc2nc(Sc3c([N+](=O)[O-])nc(C)n3Cc3ccccc3)[nH]c2cc1C,"inconclusive: 16.4 µM [cytotoxic, single point]",–
CCOc1ccc(/C=N/OCC(=O)NC(c2ccccc2)c2ccccc2)cc1,"inconclusive: 29.1 µM [cytotoxic, single point]",–
CCOCc1cnc(C)nc1NCC(=O)c1c(C)n(C)c2ccc(OC)cc12,inactive,–
O=C(NCCN1CCC(n2c(=O)[nH]c3ccccc32)CC1)c1ccc(F)c(C(F)(F)F)c1,"inconclusive: 20.6 µM [cytotoxic, single point]",–
Cc1cccc(NC(=O)C2CCCN2C(=O)OCc2ccccc2)c1 (centres undefined),inactive,–
Cc1nn(S(=O)(=O)c2ccccc2)c(C)c1Sc1ccc([N+](=O)[O-])cc1,"inconclusive: 35.5 µM [cytotoxic, single point]",–
CC(=O)N(CCc1ccccc1C)Cc1cc2ccc(C)cc2[nH]c1=O,inactive,–
CCNC(=O)c1cc2c(c(-c3cccc(-c4ccccc4F)c3)n1)[C@@H](CCO)N(C(=O)CC1CC1)C2,"inconclusive: 29.1 µM [cytotoxic, single point]",–
O=C(Nc1ccc(CN2CCS(=O)(=O)CC2)cc1)c1ccc(Cl)cc1,"inconclusive: 14.6 µM [cytotoxic, single point]",–
C=C(C)Cc1c(C)c(C#N)c2[nH]c3ccccc3n2c1=O,active: 16.4 µM,–
COc1ccccc1/C=N/NC(=O)CSc1cc(C)nc2ccccc12,"inconclusive: 18.4 µM [cytotoxic, partial curve]",–
O=C1CSc2ccc(C(=O)NCCC3=CCCCC3)cc2N1,"inconclusive: 35.5 µM [cytotoxic, single point]",–
COc1ccccc1/C=C1\SC(=S)N(CCC(=O)NCCc2ccc(O)cc2)C1=O,"inconclusive: 29.1 µM [cytotoxic, single point]",–
Cc1ccccc1CN1C(=O)c2ccccc2C1c1nnnn1-c1ccc2c(c1)OCCO2 (centres undefined),active: 3.26 µM,–
CC1CCCN(CCCCOc2cccc(Br)c2)C1 (centres undefined),inactive,–
c1ccc2c(c1)ncn2CCCOc1ccc2c(c1)CCC2,"inconclusive: 35.5 µM [cytotoxic, single point]",–
COC(=O)c1cnc(Nc2nc(C(N)Cc3ccc(OC)cc3)cs2)nc1C(F)(F)F (centres undefined),–,inconclusive: -30.2% [cytotoxic]

SMILES,Potency,"activity, negative = toxicity"
N#Cc1c(N)nc(Sc2ccc(Cl)cc2)c(C#N)c1-c1ccccc1Cl,"inconclusive: 23.1 µM [cytotoxic, single point]",–
O=C(Nc1ccc(N2CCN(C(=O)c3ccc(Cl)cc3)CC2)cc1)c1ccc(Br)o1,inactive,–
Cn1cccc1/C=C1\CCc2ccccc2C1=O,"inconclusive: 16.4 µM [cytotoxic, single point]",–
COc1ccc(NC(=O)C(=O)NCC2CCCN2S(=O)(=O)c2ccc(C)cc2)cc1 (centres undefined),active: 0.0517 µM,–
CC1CN(C(=O)CN2C(=O)c3ccccc3S2(=O)=O)CC(C)O1 (centres undefined),inactive,–
CN1C[C@H](C(=O)N[C@]2(C)O[C@@]3(O)[C@@H]4CCCN4C(=O)[C@H](Cc4ccccc4)N3C2=O)CC2c3cccc4[nH]cc(c34)C[C@H]21 (some centres undefined),"inconclusive: 8.2 µM [cytotoxic, partial curve] and inconclusive: 23.1 µM [cytotoxic, single point]",–
CCn1ncc([C@@H]2C[C@H]3CN(Cc4cccc(Cl)c4)C(=O)[C@]34CCCN24)c1C,inactive,–
Cc1ccc(N(CC(=O)NCc2ccc(F)cc2)C(=O)c2snc(C(N)=O)c2N)cc1C,inactive,–
COc1cc(/C=C2\SC(=S)N(CCC(=O)Nc3ccccc3)C2=O)cc(OC)c1OC,"inconclusive: 23.1 µM [cytotoxic, single point]",–
Cc1ccccc1NC(=O)Nc1nc(CN)cs1,"inconclusive: 18.4 µM [cytotoxic, single point]",–
O=C1/C(=C\c2cccc(O)c2O)SC(=S)N1Cc1ccccc1,"inconclusive: 29.1 µM [cytotoxic, single point]",–
Cc1ccc(-c2csc(C(O)c3ccc(F)c(F)c3)n2)cc1C (centres undefined),active: 20.6 µM,–
O=S(=O)(Nc1cc(Cl)ccc1N1CCCCC1)c1cccs1,inactive,–
O=C(Nc1cccc(C(F)(F)F)c1)c1csc([C@@H]2O[C@H](CO)[C@H](O)[C@H](O)[C@H]2O)n1,"inconclusive: 32.6 µM [rising, single point]",–
Cc1[nH]c2ccccc2c1/C=N/NC(=O)c1cc(-c2ccccc2)n[nH]1,active: 14.6 µM,–
NS(=O)(=O)c1ccc(N/N=C2/CCCCC2C2CCCCC2)c([N+](=O)[O-])c1 (centres undefined),"inconclusive: 29.1 µM [cytotoxic, single point]",–
O=C(NCCC(=O)N1CCN(c2ccccc2O)CC1)c1ccc(Br)cc1,inactive,–
COc1cc(SC#N)ccc1N=Cc1c(C)[nH]n(-c2ccc(C)cc2)c1=O,"inconclusive: 25.9 µM [cytotoxic, single point]",–
Cc1ccc(OCC(=O)Nc2ccc(O)c(-c3nc4ccccc4o3)c2)cc1,"inconclusive: 18.4 µM [cytotoxic, single point]",–
CN1CCC(N(C)C(=O)/C(C#N)=C/c2ccccc2)CC1,inactive,–
O=C(COc1ccccc1Cl)Nc1cnn(Cc2ccccc2)c1,inactive,–
CC(=Cc1ccccc1)C=C1SC(=S)N(CCCC(=O)Nc2ccc(C(=O)O)cc2)C1=O,"inconclusive: 18.4 µM [cytotoxic, single point]",–
Cn1c(=O)c2cc(NC(=O)Cc3cccnc3)ccc2n1-c1ccc2ccccc2c1,active: 18.4 µM,–
